# Laboratory results as given in ChEMBL document CHEMBL1157539, “Thousands of chemical starting points for antimalarial lead identification” (Nature, 2010).
# The full ranking holds about 13,000 compounds; the median of “IFI” is about 4, and the highest 2% start at about 17. This is one part of the list.
# Assay: GSK_TCMDC: Inhibition Frequency Index (IFI). The number of non-kinase HTS assays where a compound showed > 50 % inhibition, expressed as a percentage of the number of such assays in which the compound was tested (-0 is zero)
# Assay type: functional
row,SMILES,IFI
1,CC(C)(C)c1cc(C(=O)N2CCN(c3ncnc4ccsc34)CC2)n(Cc2ccccc2)n1,1.41%
2,CN1CCCC(CN2CCN(Cc3cccc(-c4ccc(-c5nc6cc(F)ccc6[nH]5)cc4)c3)CC2)C1 (stereo unspecified),5.56%
3,CS(=O)(=O)Nc1ccc(OCCCCCCOc2ccc(NS(C)(=O)=O)cc2)cc1,0%
4,CC1(CCN2CCC(c3c[nH]c4cnccc34)CC2)CCCc2c(Br)cccc2C1=O (stereo unspecified),8.51%
5,Cn1cc(C(=O)Nc2cccc(-c3cccc(-c4nc5ccccc5[nH]4)c3)c2)n(C)c1=O,2.78%
6,Clc1ccc(CNc2nc(NCCc3c[nH]cn3)nc(Nc3ccc4c(c3)OCO4)n2)cc1,1.5%
7,COC(=O)c1ccc(CCCNCC(O)c2cccc(C(F)(F)F)c2)cc1 (stereo unspecified),4.41%
8,CCn1ccc2c3c(N)nc(N)nc3ccc21,4.26%
9,N=C(N)NCCN(Cc1ccccc1)c1ccc(Cl)cc1,5.15%
10,CCN(CCCN1CCCC1)c1cc(C)nc(Nc2ccc(Cl)cc2)n1,6.38%
11,O=C(Nc1ccc(C(=O)N2CCN(CCN3CCN(c4cccc(C(F)(F)F)c4)CC3)CC2)cc1)c1ccc(OC(F)(F)F)cc1,11.3%
12,Fc1ccc(CNc2ccc3ncc(-c4cccnc4)n3n2)cc1,4.72%
13,CC(C)c1ccc(OCC(O)CN(C)C(C)C(O)c2ccccc2)c(Br)c1 (stereo unspecified),9.09%
14,CCc1cc2c(=O)c(-c3nc(C)cs3)c(N)oc2c(CN2CCCCC2)c1O,2.24%
15,COc1c(C2CCN(CCCCNC(=O)c3ccc(-c4ccc(Cl)cc4)c(OCCN(C)C)c3)CC2)ccc2c1CCCC2,14.4%
16,Nc1nc(F)nc2nc[nH]c12,7.75%
17,CC1CCNc2ccc(Cc3cnc(N)nc3N)cc21 (stereo unspecified),3.23%
18,CCN(CC)CCN(Cc1ccc(-c2ccc(C(F)(F)F)cc2)cc1)C(=O)Cn1c(CCc2ccc(F)c(F)c2F)nc(=O)c2cccnc21,3.4%
19,FC(F)(F)COc1ccc2ccccc2c1CNCCCCCCNCc1c(OCC(F)(F)F)ccc2ccccc12,14.9%
20,CC(C)(C)OC(=O)C1CCCN(Cc2ccc(-c3cccc(-c4nc5ccccc5[nH]4)c3)cc2)C1 (stereo unspecified),1.94%
21,COc1ccc2nccc([C@@H](O)CN3CCC(NCc4nc5c(cc4Cl)OCC(=O)N5)C(F)C3)c2c1 (stereo partly specified),2.38%
22,COc1ccc(CCN(C)CCOc2ccc(NC(=O)c3ccc([N+](=O)[O-])c4c(=O)c5ccccc5[nH]c34)cc2)cc1OC,6.47%
23,CCCCCCCC/C=C\CCCCCCCC(=O)NCc1ccc(O)c(OC)c1,4.38%

row,SMILES,IFI
1,CCCc1ccc(S(=O)(=O)Nc2ccc3c(c2)CCC3)cc1,2.26%
2,NCCCOc1cnc(-c2ccccc2)c2nc(-c3nonc3N)n(CCc3ccccc3)c12,18.8%
3,CCc1cc(Br)c(CNCCCNc2cc(=O)c3ccccc3[nH]2)s1,1.47%
4,O=C(NC1CCN(CCCOc2ccnc3cc(Cl)ccc23)C1)c1ccc(Br)cc1 (stereo unspecified),3.31%
5,CC(C)(C)c1ccc(S(=O)(=O)Nc2cc(Cl)ccc2Cn2ccc(N3CCNCC3)nc2=O)cc1,2.13%
6,COc1cccc(CCNCCCCCCNCCc2ccc(Cl)cc2)c1,7.94%
7,Cc1cccc(Cn2ccc3c(N)nc(N)nc32)c1,2.38%
8,Cc1ccc(C)c(C2CCN(CCCCNC(=O)c3ccc(NC(=O)c4ccc(Cl)cc4)cc3)CC2)c1,2.26%
9,OC(COc1ccccc1-c1nc2ccccc2o1)CN1CCCN(CCc2ccccc2)CC1 (stereo unspecified),3.73%
10,CNC(=O)c1cnc(Nc2ccc(N3CCOCC3)cc2)nc1Nc1cccc(O)c1,6.67%
11,Nc1cccc(CNCc2cccc(-c3csc(-c4nc5ccccc5[nH]4)c3)c2)c1,2.86%
12,CC(C)C(NC(=O)Cc1cccc2ccccc12)C(=O)Nc1cccc(C#N)c1 (stereo unspecified),1.2%
13,Cc1cc(I)ccc1Nc1nc2nonc2nc1Nc1ccc(I)cc1C,15.2%
14,Nc1ccnc(N2CCC(CCOc3ccnc4cc(Cl)ccc34)CC2)c1,13.8%
15,Cc1nc(C)c(CC(=O)Nc2cccc(-c3cccc(-c4nc5cc(C(F)(F)F)ccc5[nH]4)c3)c2)s1,15.9%
16,O=C(N[C@@H](Cc1ccccc1)C(=O)NCc1cccc2ccccc12)c1ccc(O)c(-c2ccc(Cl)c(Cl)c2)c1,2.21%
17,Cc1ccc(NS(=O)(=O)c2cccs2)cc1-c1cccc(C(=O)Nc2ccc(F)cc2)c1,14.3%
18,CC1CCCCN1CCCNc1ncc2c(-c3ccc(NC(=O)Nc4cc(C(F)(F)F)ccc4F)c(F)c3)nn(C)c2n1 (stereo unspecified),8.76%
19,Cc1[nH]c(C)c(-c2ccc(-c3ccc(OC(F)(F)F)cc3)cc2)c(=O)c1Br,2.73%
20,Cn1nc(C(F)(F)F)c(-c2ccc(Br)cc2)c1NC(=O)Nc1ccc(F)cc1F,5.43%
21,Cn1cnc2nc(NCCc3ccccc3)nc(NCc3cccc4ccccc34)c21,13.1%
22,CCNc1cc(C(=O)N[C@@H](Cc2ccccc2)[C@H](O)CNCCc2cccc(C(F)(F)F)c2)cc(N2CCCC2=O)c1,8.4%
23,COc1cccc(C(=O)Nc2ccc(-c3nc4ccccc4[nH]3)cc2)c1,3.51%

row,SMILES,IFI
1,O=C(Nc1ccccc1F)NC1CCN(c2ccnc(Nc3ccc(F)cc3)n2)C1 (stereo unspecified),1.54%
2,CCC(C)NS(=O)(=O)c1ccc2nc(Nc3ccc(C)cc3)n(C3CCCCC3C)c2c1 (stereo unspecified),3.7%
3,CC(C)C[C@H](NC(=O)c1ccc(OCCN2CCOCC2)cc1)C(=O)N[C@H](/C=N/N1CCNC1=O)CCc1ccccc1,2.75%
4,O=C(Nc1ccc2c(c1)CCN(C1CCC1)CC2)c1cn(-c2ccccc2)nc1-c1ccccc1,5.26%
5,CN1CCC(c2nc(N)no2)C1 (stereo unspecified),3.68%
6,Cc1ccc(NC(C)C(=O)Nc2ccccc2)cc1S(=O)(=O)N1CCCCCC1 (stereo unspecified),0%
7,Cc1ccc(NC(=O)C2CCC2)cc1-c1ccc(C(=O)NCC2CC2)cc1,0.71%
8,O=C(NC1CC1)c1ccc(N2CCC(Cc3ccccc3)CC2)nc1,6.67%
9,Cc1cc(-c2cccc(CNCc3ccc(F)cc3)c2)ccc1S(=O)(=O)NCCN1CCCC1,12.9%
10,Cc1cccc(-c2nc(Nc3ccncc3)c3ccc([N+](=O)[O-])cc3n2)n1,2.31%
11,O=C(c1ccc(Cl)cc1Cl)N1CCCC(C(F)(F)F)C1 (stereo unspecified),3.45%
12,Cc1noc(C)c1-c1ccc(C(=C2CCCCCCC2)c2ccc(O)cc2)cc1,7.09%
13,CC(Oc1ccc(Cl)cc1)C(=O)Nc1cc(C(F)(F)F)ccc1-n1cncn1 (stereo unspecified),5.77%
14,CC(=O)c1c(Cc2ccccc2Cl)c[nH]c1C,1.23%
15,O=C(CCc1c[nH]cn1)Nc1cccc(-c2cccc(-c3nc4cc(C(F)(F)F)ccc4[nH]3)c2)c1,5.26%
16,N#Cc1cccc(NC(=O)c2ccc(S(=O)(=O)NCC3CCCN3CC3CCCCC3)cc2)c1 (stereo unspecified),2.67%
17,CCCCCCCCn1c2c(c(=N)c3c1CCC3)CCC2,9.59%
18,Cn1nc(-c2ccc(NC(=O)Nc3cc(C(F)(F)F)ccc3F)cc2)c2cnc(NCCc3c[nH]cn3)nc21,8.66%
19,O=C1CCCN1CCCNCc1cccc(-c2ccc(-c3nc4ccccc4[nH]3)s2)c1,0%
20,COc1cc(-c2nc3ccc(N4CCN(C)CC4)cc3[nH]2)cc(OC)c1OC,1.32%
21,CCCNC[C@@H](O)[C@H](Cc1ccccc1)NC(=O)c1cc2c3c(c1)c(CC)cn3CCS(=O)(=O)N2C,1.59%
22,O=C(/C=C/c1ccccc1O)NCCCCCN1CCC(c2c[nH]c3ccccc23)CC1,4.38%
23,CC(C)NCC(O)COc1ccc(Cc2ccc(OCC(O)CNC(C)C)cc2)cc1 (stereo unspecified),0.75%

row,SMILES,IFI
1,COc1ccc2nc3cc(Cl)ccc3c(NCCO)c2c1,1.4%
2,COc1ccc(-n2ccnc2SCC(=O)Nc2cc(C)ccc2C)c(OC)c1,5.63%
3,Cc1cc(Cl)ccc1N(Cc1ccccc1)c1ccnc(Cl)n1,2.26%
4,O=c1cc(NCCCNCc2scc3c(Cl)cc(C(F)(F)F)nc23)[nH]c2ccccc12,7.91%
5,Cc1nc2ccc3ccc(CNc4ccc(C(=O)CC(CCC(=O)O)C(=O)O)cc4)cc3c2c(=O)[nH]1 (stereo unspecified),1.43%
6,CCOc1cc(C(=O)Nc2ccc3nc(N(CC)CC)cc(C)c3c2)cc(OCC)c1OCC,0.77%
7,COc1ccc(-c2cc(-c3ccc(S(C)(=O)=O)cc3)cnc2N)cn1,-0%
8,CCNC(=O)c1cc(S(=O)(=O)N2CCN(c3ccccn3)CC2)cs1,2.13%
9,COc1ccccc1CNC(=O)C(=O)Nc1c(-c2ccccc2)[nH]c2ccccc12,2.56%
10,O=C(Nc1nc2cc(S(=O)(=O)NCCc3cccc(F)c3)ccc2n1CCCn1ccnc1)c1ccc(Cl)cc1,1.43%
11,Cc1c(Cn2ncc(N3CC(C)NC(C)C3)c(Cl)c2=O)cccc1NC(=O)Nc1ccc(-c2ccccc2)cc1 (stereo unspecified),8.84%
12,COc1cccc2cc(C(=O)N[C@@H](CC(C)C)C(=O)N[C@H](/C=N/NC(=O)OC(C)(C)C)CC(=O)OC(C)(C)C)oc12,2.75%
13,CCC(CCON1C(N)=NC(N)=NC1(C)C)c1ccc(Cl)cc1 (stereo unspecified),5.97%
14,CCC(C)NC(=O)Nc1ccc(-c2cccc(-c3nc4cc(C(F)(F)F)ccc4[nH]3)c2)cc1 (stereo unspecified),9.71%
15,COc1ccc(CN(C)CCCc2ccc(NC(=O)c3cc4ccccc4[nH]3)cc2)cc1OC,12.7%
16,CCN(CC)CCCN(CCCN(CC)CC)c1cc(C)nc(Nc2ccc3cc(Br)ccc3c2)n1,4.35%
17,O=C(/C=C/c1ccc(Cl)c(Cl)c1)NCCCCCCN1CCCN(C(=O)Nc2ccc(Cl)c(C(F)(F)F)c2)CC1,11.3%
18,N#Cc1ccc(S(=O)(=O)N2C(c3cccc([N+](=O)[O-])c3)C(C(=O)c3ccccc3)N(C3CCCCC3)C2c2cccc([N+](=O)[O-])c2)cc1 (stereo unspecified),0.74%
19,O=C(NCc1ccccc1)c1ncn(CCCN2CCC(N3CCCC3)CC2)c1-c1ccc(Cl)c(Cl)c1,2.14%
20,CCCCc1ccc(C(=O)Nc2ccc3nc(N4CCN(CC)CC4)cc(C)c3c2)cc1,7.89%
21,O=C(Cc1cccc(Cl)c1)N1CCc2cc3nccc(N4CCN5CCC[C@H]5C4)c3cc21,-0%
22,Cc1nnsc1C(=O)Nc1cccc(-c2cccc(-c3nc4ccccc4[nH]3)c2)c1,4.55%
